The text below walks through data of PubChem BioAssay (EPA / NIEHS).

Experiment [1] is described as follows: BSK_3C_Proliferation: Cell Proliferation Assessment in the BioMAP Diversity Plus: 3C Assay (AID 2283006; active = hit-call score of the fitted dose curve at least 0.9, where 1 is the maximum; inactive = score below 0.9;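 note: potency may reflect either rise or fall in cell number versus DMSO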). Conditions: primary human endothelial cells (HUVEC). A digest of the protocol:
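Measured here: sulforhodamine B (0.1%) staining of TCA-fixed sub-confluent umbilical vein endothelial cultures 48 h post-dosing, absorbance 560 nm. DMSO served as negative control and baseline; both signal gain and loss were modelled.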

Experiment [2] concerns the target rat Mineralocorticoid Receptor (MR), Nr3c2 (gene 25672) (UniProt P22199). The experiment can be described thus: NVS_NR_rMR: NovaScreen (NVS) Nuclear Receptor Binding Assay for rat Mineralocorticoid Receptor (MR) (AID 2283355). A digest of the protocol: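 Primary HTS ran in duplicate at a single 25 uM concentration, with concentration-series follow-up for actives. Receptor source: adrenalectomized rat brain supernatant, cell-free. Radioligand displacement read by scintillation at 24 h, relative to DMSO baseline.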

The subject of experiment [3] is chicken Androgen Receptor (AR), gene 422165. The experiment can be described thus: ATG_chAR_XSP2: Attagene TRANS-FACTORIAL Multi-Species (XSP2) HepG2 Assay for chicken Androgen Receptor (AR) (AID 2283819).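 Note: hits raise reporter mRNA above DMSO so potency is for activation.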 An outline of the steps: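 Readout is reporter mRNA induction via RT-PCR/capillary electrophoresis after 24 h chemical exposure, positive direction relative to DMSO. Transiently transfected HepG2 express chimeric chicken AR–GAL4; AR stimulated by 3 nM 6-alpha-fluorotestosterone and 1.5 nM norgestrel.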

Experiment [4] has as its target Nuclear receptor subfamily 1 group I member 2 (Homo sapiens) (UniProt O75469). The experiment can be described thus: ATG_PXR_TRANS: Attagene TRANS-FACTORIAL HepG2 Assay for human Pregnane X Receptor (PXR) (AID 2283008). An outline of the steps:
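Transient HepG2 transfectants carrying multiplexed reporter transcription units; PXR activity read through a Gal4 chimera. 24 h exposure. RT-PCR/CE fluorescence; upward curve fit referenced to DMSO.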

The target in experiment [5] is Tyrosine-protein phosphatase non-receptor type 13 (Homo sapiens) (UniProt Q12923). The experiment can be described thus: NVS_ENZ_hPTPN13: NovaScreen (NVS) Enzymatic Assay for human Protein Tyrosine Phosphatase Non-receptor Type 13 (PTPN13) (AID 2283205). An outline of the steps: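 Screened first at a single 25 uM in duplicate; compounds passing the threshold (e.g. 30% inhibition) were rerun in concentration series, top 50 uM. Recombinant enzyme, fluorescent substrate, mobility-shift separation, 0.5 h read. Data fitted as inhibition relative to DMSO.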

For experiment [6], the target named is Peroxisome proliferator-activated receptor gamma (Homo sapiens) (UniProt P37231). The experiment can be described thus: OT_PPARg_PPARgSRC1_1440: Odyssey Thera (OT) 24-hour Protein-Complementation Assay for Peroxisome Proliferator-activated Receptor Gamma/ SRC-1 Co-activator (AID 2283388).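 Note: nuclear to cytoplasmic ratio of reconstituted Venus YFP fluorescence in fixed imaged cells.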 A digest of the protocol:
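Readout is the 488 nm N/C fluorescence ratio from fixed, Draq5-stained HEK293T cells after 24 h compound exposure. Cells carried transiently transfected PPARg and SRC-1 fused to Venus fragments, transfected 48 h before treatment.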

Experiment [7] is described as follows: CCTE_Mundy_HCI_hNP1_CellTiter: CCTE's Cell Titer-Glo 2 Assay in human neuroprogenitor cells for Viability, Mundy Lab (AID 2284241).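 Note: a hit is a drop in ATP luminescence versus DMSO meaning reduced viability.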 A digest of the protocol:
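Human neural progenitor cells (hNP1, WA09-derived) were plated on poly-L-ornithine/laminin and grown 40 to 44 hours at 37 °C, 5% CO2 before chemical addition. Twenty-four hours later, ATP was measured by CellTiter-Glo luminescence; loss of signal versus DMSO indicates reduced viability.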
On the technique in general: Cellular ATP, detected with luciferase, serves as a proxy for viable cell number.

Experiment [8] is described as follows: IUF_NPC3_neuronal_differentiation_120hr: Leibniz Research Institute for Environmental Medicine (IUF) 120-hour Neuronal Differentiation Assay (NPC3) (AID 2284301; active = hit-call score of the fitted dose curve at least 0.9, where 1 is the maximum; inactive = score below 0.9). A digest of the protocol: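 Value is percent TUBB3-positive neurons among Hoechst-stained nuclei in the migration area, scored by trained CNN after 120 h differentiation. Primary hNPC spheres on poly-D-lysine/laminin, N2 medium, continuous dosing from day 0, half-refeed day 3; DMSO reference.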

The target of experiment [9] is human Peroxisome Proliferator-activated Receptor delta (PPARd), PPARD (gene 5467) (UniProt Q03181). The experiment can be described thus: ATG_PPARd_TRANS: Attagene TRANS-FACTORIAL HepG2 Assay for human Peroxisome Proliferator-activated Receptor delta (PPARd) (AID 2283002). An outline of the steps: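 Cell-based TRANS reporter: HepG2, transient MRTU transfection, 24 h exposure. Readout = reporter mRNA (RT-PCR/CE, 6-FAM). Gain-of-signal fit vs DMSO control.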

Read-out in experiment [10]: Monocyte Chemoattractant Protein-1 (MCP1), CCL2 (gene 6347)
The experiment can be described thus: BSK_3C_MCP1: BioMAP Diversity Plus: 3C Assay for Monocyte Chemoattractant Protein-1 (MCP1) Biomarker Activity (AID 2283017; active = hit-call score of the fitted dose curve at least 0.9, where 1 is the maximum; inactive = score below 0.9). Conditions: actives raise or lower the signal; primary human endothelial cells (HUVEC). An outline of the steps:
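MCP-1 was measured by ELISA 24 h after dosing in primary HUVEC 3C cultures and fitted in both directions relative to DMSO; cytotoxicity was checked by SRB total-protein staining in parallel wells.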

Read-out in experiment [11]: Vascular endothelial growth factor receptor 2 (Homo sapiens) (UniProt P35968)
The experiment can be described thus: BSK_4H_VEGFRII: BioMAP Diversity Plus: 4H Assay for Vascular endothelial growth factor receptor 2 (VEGFR2) Biomarker Activity (AID 2283031; active = hit-call score of the fitted dose curve at least 0.9, where 1 is the maximum; inactive = score below 0.9;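 note: cell-surface VEGFR2 protein level quantified by ELISA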). Conditions: actives raise or lower the signal; primary human endothelial cells (HUVEC). A digest of the protocol: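 Measured by ELISA after 24 h of compound treatment: VEGFR2 on primary human umbilical vein endothelial cells, fitted in both directions relative to DMSO. Parallel cultures received SRB staining (560 nm) for overt cytotoxicity.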

The nature of experiment [12]: BSK_CASM3C_Proliferation: Cell Proliferation Assessment in the BioMAP Diversity Plus: CASM3C Assay (AID 2283047; active = hit-call score of the fitted dose curve at least 0.9, where 1 is the maximum; inactive = score below 0.9;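 note: sulforhodamine B total protein stain as relative cell number at 560 nm; sub-confluent cells exposed 48 h before staining; fitted both ways against DMSO so gain or loss of cell number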). Conditions: primary human coronary artery smooth muscle cells.
Read-out in experiment [13]: Macrophage colony-stimulating factor (MCSF), CSF1 (gene 1435)
The experiment can be described thus: BSK_hDFCGF_MCSF: BioMAP Diversity Plus: hDFCGF Assay for Macrophage colony-stimulating factor (MCSF) Biomarker Activity (AID 2283060; active = hit-call score of the fitted dose curve at least 0.9, where 1 is the maximum; inactive = score below 0.9). Conditions: actives raise or lower the signal; primary human foreskin fibroblasts. A digest of the protocol:
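M-CSF levels read by ELISA at 24 h post-dosing in human skin fibroblasts. Parallel cultures stained with SRB assessed cytotoxicity at the same time point; response fitted in both directions against the DMSO baseline.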

For experiment [14], the target named is human Peroxisome Proliferator-activated Receptor alpha (PPARa), PPARA (gene 5465) (UniProt Q07869). The experiment can be described thus: ATG_PPARa_TRANS: Attagene TRANS-FACTORIAL HepG2 Assay for human Peroxisome Proliferator-activated Receptor alpha (PPARa) (AID 2283001). A digest of the protocol:
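Transfected HepG2 cells treated with test chemical for 24 h. RNA isolated, reverse-transcribed with oligo(dT), PCR-amplified, FAM-labelled and HpaI-digested. Fragments sized by capillary electrophoresis; gain-of-signal fit relative to DMSO.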

The target in experiment [15] is human Retinoic Acid Receptor gamma (RARg), RARG (gene 5916) (UniProt P13631). The experiment can be described thus: ATG_RARg_TRANS: Attagene TRANS-FACTORIAL HepG2 Assay for human Retinoic Acid Receptor gamma (RARg) (AID 2283009). An outline of the steps:
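Gain-of-signal relative to DMSO is reported from fluorescent capillary electrophoresis of RT-PCR reporter products. These came from HepG2 cells expressing transfected RARg-GAL4 chimeras with UAS reporters, harvested 24 h after dosing.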

In experiment [16] the target is human Retinoic Acid Receptor beta (RARb), RARB (gene 5915) (UniProt P10826). The experiment can be described thus: ATG_RARb_TRANS: Attagene TRANS-FACTORIAL HepG2 Assay for human Retinoic Acid Receptor beta (AID 2283004). An outline of the steps: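 Induction of reporter mRNA from a chimeric RARb-Gal4 construct was measured by RT-PCR, FAM labelling, HpaI digestion and capillary electrophoresis. Measurements followed 24 h compound treatment of transiently transfected human HepG2 liver cells, with DMSO as baseline.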

Read-out in experiment [17]: Bcl-2 (BAD) gene, BAD (gene 572)
The experiment can be described thus: LTEA_HepaRG_BAD: Life Technologies and Expression Analysis (LTEA) Assay for Bcl-2 (BAD) gene using HepaRG (AID 2283469; active = hit-call score of the fitted dose curve at least 0.9, where 1 is the maximum; inactive = score below 0.9). Conditions: actives raise or lower the signal; mRNA level, 48 h. A digest of the protocol: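 Read-out: qRT-PCR of BAD mRNA, normalized to three housekeeping genes. Human HepaRG cultures got 48 h chemical exposure in 0.5% DMSO, duplicate eight-point half-log series topping at 100 uM. Gain or loss of signal fitted versus DMSO vehicle.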

Experiment [18] deals with Cellular tumor antigen p53 (Homo sapiens) (UniProt P04637). The experiment can be described thus: TOX21_p53_BLA_p3_ratio: Tox21 HCT-116 p53 Agonism Beta-lactamase Assay, Ratio, Phase 3 (AID 2283596). A digest of the protocol:
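Cells were seeded at 4000/well, rested 5 h at 37C, then dosed with DMSO compound solutions (217-fold dilution) for 16 h. CCF4-AM substrate was loaded for 2 h at room temperature, and the 460/530 nm emission ratio was fitted for gain of signal versus DMSO.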

The target of experiment [19] is human Vitamin D Receptor (VDR), VDR (gene 7421) (UniProt P11473). The experiment can be described thus: ATG_VDR_TRANS: Attagene TRANS-FACTORIAL HepG2 Assay for human Vitamin D Receptor (VDR) (AID 2283022). An outline of the steps: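 Transactivation by an exogenous VDR-Gal4 chimera in transiently transfected HepG2 cells was measured as reporter transcript level 24 hours after chemical treatment. RT-PCR products were analysed by capillary electrophoresis and fitted in the positive direction relative to DMSO.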

Experiment [20] is described as follows: ATG_XTT_Cytotoxicity: Cytotoxicity Assessment in the Attagene TRANS-FACTORIAL HepG2 Assay (AID 2283584). A digest of the protocol:
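Viability endpoint from XTT after 24 h chemical exposure of reporter-transfected human HepG2 liver cells; signal loss fitted relative to DMSO negative control.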

Experiment [21] has as its target human RAR-related Orphan Receptor beta (RORb), RORB (gene 6096) (UniProt Q92753). The experiment can be described thus: ATG_RORb_TRANS: Attagene TRANS-FACTORIAL HepG2 Assay for human RAR-related Orphan Receptor beta (RORb) (AID 2283010). An outline of the steps:
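Multiplexed transcription-factor reporter assay: HepG2 cells transiently carrying NR-Gal4/GAL4-UAS constructs, 24 h treatment, mRNA quantified by RT-PCR plus capillary electrophoresis fluorescence; activity scored as induction over DMSO.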

Experiment [22] deals with Retinoic acid receptor RXR-alpha (Homo sapiens) (UniProt P19793). The experiment can be described thus: ATG_RXRa_TRANS: Attagene TRANS-FACTORIAL HepG2 Assay for human Retinoid X Receptor alpha (RXRa) (AID 2283012). A digest of the protocol:
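Chimeric NR-GAL4 trans-activation in HepG2, 24 h treatment; reporter transcripts quantified by fluorescence on capillary electrophoresis, analysed for upward change from DMSO.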

The structures appear in SMILES notation. For part of these data: This list holds what a sample rich in hits left over. Results filed as inconclusive are left out. This is a selection; strong and weak results do not stand in their true shares. The source holds several records for some structures; these can differ, active in one and inactive in another. Activity calls are given as the source filed them. Rule for the calls, unless noted: active = hit-call score of the fitted dose curve at least 0.9, where 1 is the maximum; inconclusive = response in the unintended direction; inactive = score below 0.9.

Sequence of UniProt Q03181 (Q03181 whole entry, looked up): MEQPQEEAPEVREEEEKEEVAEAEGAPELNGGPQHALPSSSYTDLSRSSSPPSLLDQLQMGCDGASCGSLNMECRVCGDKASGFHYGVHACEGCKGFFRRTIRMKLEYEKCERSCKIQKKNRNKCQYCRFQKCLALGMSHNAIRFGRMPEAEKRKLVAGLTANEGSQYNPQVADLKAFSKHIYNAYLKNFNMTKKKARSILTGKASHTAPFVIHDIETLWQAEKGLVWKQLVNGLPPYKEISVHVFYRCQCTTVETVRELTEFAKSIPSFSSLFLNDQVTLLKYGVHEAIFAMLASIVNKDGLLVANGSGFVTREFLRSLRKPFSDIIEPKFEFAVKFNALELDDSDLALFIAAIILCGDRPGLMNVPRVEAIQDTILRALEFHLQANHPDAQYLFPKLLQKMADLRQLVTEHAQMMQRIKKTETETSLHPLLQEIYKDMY
Sequence of UniProt Q07869 (Q07869 whole entry, looked up, the tested form may be a part): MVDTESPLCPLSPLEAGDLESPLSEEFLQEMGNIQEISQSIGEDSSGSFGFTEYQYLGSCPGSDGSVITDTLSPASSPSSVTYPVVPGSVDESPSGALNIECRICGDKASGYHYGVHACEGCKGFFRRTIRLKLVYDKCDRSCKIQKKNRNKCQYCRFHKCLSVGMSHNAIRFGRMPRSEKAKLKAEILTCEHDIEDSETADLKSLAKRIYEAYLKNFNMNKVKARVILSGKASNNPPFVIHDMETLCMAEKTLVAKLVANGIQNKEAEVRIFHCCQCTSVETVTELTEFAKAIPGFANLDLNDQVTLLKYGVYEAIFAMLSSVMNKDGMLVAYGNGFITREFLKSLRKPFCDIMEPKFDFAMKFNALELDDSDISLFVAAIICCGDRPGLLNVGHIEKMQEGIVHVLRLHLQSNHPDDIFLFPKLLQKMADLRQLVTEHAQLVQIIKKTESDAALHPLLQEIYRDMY
Sequence of human Retinoic Acid Receptor gamma (RARg), RARG (gene 5916) (P13631 whole entry, looked up, the tested form may be a part): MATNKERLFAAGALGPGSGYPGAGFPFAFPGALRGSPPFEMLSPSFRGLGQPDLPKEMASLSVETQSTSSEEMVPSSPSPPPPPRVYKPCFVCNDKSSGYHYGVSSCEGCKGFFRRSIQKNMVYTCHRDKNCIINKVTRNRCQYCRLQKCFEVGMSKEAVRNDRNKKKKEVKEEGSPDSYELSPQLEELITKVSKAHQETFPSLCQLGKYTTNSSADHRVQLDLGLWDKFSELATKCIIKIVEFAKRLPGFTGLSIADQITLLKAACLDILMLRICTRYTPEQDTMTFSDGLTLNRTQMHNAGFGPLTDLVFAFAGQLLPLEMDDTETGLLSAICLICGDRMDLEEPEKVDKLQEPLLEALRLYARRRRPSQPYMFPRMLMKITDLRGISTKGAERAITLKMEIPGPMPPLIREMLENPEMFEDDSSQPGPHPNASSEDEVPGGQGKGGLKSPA
Sequence of UniProt O75469 (O75469 whole entry, looked up, the tested form may be a part): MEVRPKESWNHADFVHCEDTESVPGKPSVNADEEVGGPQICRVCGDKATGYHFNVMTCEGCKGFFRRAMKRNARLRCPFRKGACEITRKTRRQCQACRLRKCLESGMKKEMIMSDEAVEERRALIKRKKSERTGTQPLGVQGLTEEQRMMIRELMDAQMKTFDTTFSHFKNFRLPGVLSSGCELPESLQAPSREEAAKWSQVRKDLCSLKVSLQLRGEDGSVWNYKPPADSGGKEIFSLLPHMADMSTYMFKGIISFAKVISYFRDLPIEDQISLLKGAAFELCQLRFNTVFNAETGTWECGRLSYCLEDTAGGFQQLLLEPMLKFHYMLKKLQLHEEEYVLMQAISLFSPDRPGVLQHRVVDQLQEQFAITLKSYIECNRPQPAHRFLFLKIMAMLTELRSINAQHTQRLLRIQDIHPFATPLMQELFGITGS
Sequence of UniProt P10826 (P10826 whole entry, looked up, the tested form may be a part): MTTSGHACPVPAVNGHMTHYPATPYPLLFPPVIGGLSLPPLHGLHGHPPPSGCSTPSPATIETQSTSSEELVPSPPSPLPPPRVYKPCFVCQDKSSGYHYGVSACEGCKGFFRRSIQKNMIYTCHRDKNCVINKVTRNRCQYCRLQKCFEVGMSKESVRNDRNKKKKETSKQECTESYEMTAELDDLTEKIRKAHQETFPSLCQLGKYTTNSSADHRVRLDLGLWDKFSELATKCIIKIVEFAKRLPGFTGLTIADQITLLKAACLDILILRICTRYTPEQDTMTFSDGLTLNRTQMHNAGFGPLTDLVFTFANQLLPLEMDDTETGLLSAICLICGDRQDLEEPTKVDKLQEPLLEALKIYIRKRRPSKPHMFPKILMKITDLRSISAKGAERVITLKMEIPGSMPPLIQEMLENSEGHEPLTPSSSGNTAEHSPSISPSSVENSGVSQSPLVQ
Sequence of Tyrosine-protein phosphatase non-receptor type 13 (Homo sapiens) (Q12923 whole entry, looked up): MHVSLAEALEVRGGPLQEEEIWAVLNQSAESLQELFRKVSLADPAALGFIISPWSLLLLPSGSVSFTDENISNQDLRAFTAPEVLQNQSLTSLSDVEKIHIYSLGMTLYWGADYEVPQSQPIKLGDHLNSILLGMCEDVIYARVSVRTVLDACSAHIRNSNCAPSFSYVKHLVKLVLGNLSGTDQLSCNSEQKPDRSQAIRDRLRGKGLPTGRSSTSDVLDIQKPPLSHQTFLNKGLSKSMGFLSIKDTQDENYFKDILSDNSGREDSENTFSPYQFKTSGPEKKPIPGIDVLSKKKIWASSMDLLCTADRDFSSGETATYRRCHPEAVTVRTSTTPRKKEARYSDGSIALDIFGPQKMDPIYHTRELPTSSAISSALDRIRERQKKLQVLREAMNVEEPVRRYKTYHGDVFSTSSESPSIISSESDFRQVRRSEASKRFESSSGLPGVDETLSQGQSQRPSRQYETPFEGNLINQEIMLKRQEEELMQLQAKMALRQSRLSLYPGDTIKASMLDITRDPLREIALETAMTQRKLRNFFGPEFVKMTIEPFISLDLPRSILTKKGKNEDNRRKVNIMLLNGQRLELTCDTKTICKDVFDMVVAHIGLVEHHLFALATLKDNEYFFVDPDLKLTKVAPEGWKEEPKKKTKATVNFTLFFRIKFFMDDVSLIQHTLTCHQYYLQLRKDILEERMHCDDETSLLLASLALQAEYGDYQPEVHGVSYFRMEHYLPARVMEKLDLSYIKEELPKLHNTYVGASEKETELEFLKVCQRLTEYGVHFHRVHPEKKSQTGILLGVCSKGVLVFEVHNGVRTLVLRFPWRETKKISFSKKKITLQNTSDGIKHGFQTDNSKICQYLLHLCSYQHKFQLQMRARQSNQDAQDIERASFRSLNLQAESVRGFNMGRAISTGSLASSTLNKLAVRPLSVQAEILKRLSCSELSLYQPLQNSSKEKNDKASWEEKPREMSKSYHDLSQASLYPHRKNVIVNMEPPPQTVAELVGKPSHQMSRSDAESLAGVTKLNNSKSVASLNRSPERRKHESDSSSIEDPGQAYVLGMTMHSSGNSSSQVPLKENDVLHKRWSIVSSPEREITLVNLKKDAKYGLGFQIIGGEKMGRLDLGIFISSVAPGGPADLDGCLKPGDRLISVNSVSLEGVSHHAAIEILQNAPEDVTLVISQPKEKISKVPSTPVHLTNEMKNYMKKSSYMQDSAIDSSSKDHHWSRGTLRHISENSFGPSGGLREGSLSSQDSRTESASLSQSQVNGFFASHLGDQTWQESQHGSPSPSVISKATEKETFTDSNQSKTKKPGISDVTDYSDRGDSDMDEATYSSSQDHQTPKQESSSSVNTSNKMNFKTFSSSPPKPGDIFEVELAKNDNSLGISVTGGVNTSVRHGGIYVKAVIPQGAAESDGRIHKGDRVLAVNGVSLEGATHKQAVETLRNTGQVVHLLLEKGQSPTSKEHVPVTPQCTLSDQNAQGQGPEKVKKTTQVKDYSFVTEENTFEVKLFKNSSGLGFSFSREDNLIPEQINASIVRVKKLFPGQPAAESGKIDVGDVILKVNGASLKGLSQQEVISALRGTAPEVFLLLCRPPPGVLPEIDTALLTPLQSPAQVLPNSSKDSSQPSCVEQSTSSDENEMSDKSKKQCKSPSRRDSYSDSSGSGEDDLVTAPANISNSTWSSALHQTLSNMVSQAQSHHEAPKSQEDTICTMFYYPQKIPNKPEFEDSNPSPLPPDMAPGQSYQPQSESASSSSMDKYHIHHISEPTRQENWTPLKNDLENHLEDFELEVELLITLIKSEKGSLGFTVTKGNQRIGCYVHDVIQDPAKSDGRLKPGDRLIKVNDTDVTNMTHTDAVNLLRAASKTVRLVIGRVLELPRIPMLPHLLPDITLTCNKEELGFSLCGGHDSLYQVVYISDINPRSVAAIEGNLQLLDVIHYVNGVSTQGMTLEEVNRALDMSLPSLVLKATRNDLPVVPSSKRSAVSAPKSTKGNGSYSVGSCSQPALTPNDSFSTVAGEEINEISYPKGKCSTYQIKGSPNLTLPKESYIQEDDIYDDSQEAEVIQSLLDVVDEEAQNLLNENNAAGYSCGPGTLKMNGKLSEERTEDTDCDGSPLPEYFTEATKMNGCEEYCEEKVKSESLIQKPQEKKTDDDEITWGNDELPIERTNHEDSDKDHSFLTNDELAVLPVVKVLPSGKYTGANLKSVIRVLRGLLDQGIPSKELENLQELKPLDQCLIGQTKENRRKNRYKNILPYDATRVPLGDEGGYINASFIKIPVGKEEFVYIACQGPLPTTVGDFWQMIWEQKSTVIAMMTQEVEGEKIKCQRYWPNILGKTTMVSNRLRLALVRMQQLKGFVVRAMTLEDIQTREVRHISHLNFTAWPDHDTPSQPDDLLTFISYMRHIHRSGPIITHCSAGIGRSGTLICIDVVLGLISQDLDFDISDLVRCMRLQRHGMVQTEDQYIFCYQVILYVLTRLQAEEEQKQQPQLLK

A word on the AC50: it is the midpoint of the concentration-response curve, whichever way the signal moves. As for `CC1(C)C(C=C(Cl)Cl)C1C(=O)OC(C#N)c1cccc(Oc2ccccc2)c1` (stereo not given), the half-maximal activity concentration (AC50) in [1] is active: 12.7 µM. Further, the outcome in experiment [2] and in experiment [3] was inactive.

As to `CC[C@H](C)[C@H]1O[C@]2(C=C[C@@H]1C)C[C@@H]1C[C@@H](C/C=C(\C)[C@@H](O[C@H]3C[C@H](OC)[C@@H](O[C@H]4C[C@H](OC)[C@@H](NC)[C@H](C)O4)[C@H](C)O3)[C@@H](C)/C=C/C=C3\CO[C@@H]4[C@H](O)C(C)=C[C@@H](C(=O)O1)[C@]34O)O2`, the compound was classed as inactive in [4] and in [6]. Besides, the concentration at half-maximal activity (AC50) is active: 35.7 µM in experiment [5], active: 2.44 µM in experiment [7] and active: 5.14 µM in experiment [8].

`C(=NC1CCCCC1)=NC1CCCCC1`: the compound was classed as inactive in experiment [9]. For the same compound, the AC50 in [10] was active: 25.2 µM; in experiment [11], active: 5.31 µM; in [12], active: 25.6 µM.

Turning to `CN(N=O)c1ccc([N+](=O)[O-])cc1`, in [9], the compound was classed as inactive.

For the compound `COP(=S)(OC)Oc1cc(Cl)c(Cl)cc1Cl`, the AC50 in experiment [4] is active: 27.5 µM; in [13], active: 23.9 µM.

For the compound `CCOP(=S)(OCC)SCS(=O)(=O)C(C)(C)C`, the result in [14] was inactive.

For `C=C(C)C(=O)OCC(CC)CCCC` (stereo not given), the call in experiment [15] was inactive.

As to `CC(C=O)Cc1ccc2c(c1)OCO2` (stereo not given), in experiment [16], the call was inactive.

For the compound `C[C@]12CCC(=O)C=C1CC[C@@H]1[C@@H]2CC[C@@]2(C)[C@H]1CC[C@]2(C)O`, the compound was classed as inactive in experiment [9] and in [17]. The AC50 in experiment [18] was active: 47.6 µM.

`Cc1cc(C2CC2)nc(Nc2ccccc2)n1`: the compound was classed as inactive in [16].

In the case of `O=C(O)c1cc[c]([Hg][Cl])cc1`, the call in experiment [14] and in experiment [19] was inactive.

On to `O=[N+]([O-])c1cc([N+](=O)[O-])c2ccccc2c1`, for which the call in experiment [9] and in [20] was inactive.

With `CCOCN(C(=O)CCl)c1c(C)cccc1CC`, the outcome in experiment [15] and in experiment [21] was inactive.

Regarding `CCCCCCCCCCCCBr`, the result in experiment [9] and in experiment [22] was inactive.
